± gives the standard deviation of the averaged measurements. The full ranking holds about 33,000 sequences; the median of “E-score (dimensionless, -0.5 to 0.5)” is about -0.049, and the highest 2% start at about 0.37. This is one part of the list.
test system: T1, PmTbr T-box DNA-binding domain (GST fusion); experiment: PBM E-score of 8-mer (E-score (dimensionless, -0.5 to 0.5)); Tbr is Tbrain of the sea star Patiria miniata (Pm) or the sea urchin Strongylocentrotus purpuratus (Sp); higher = stronger binding preference; most listed sequences are background and not binding sites; settings: the construct has about 5 more residues each side
T1 sequence: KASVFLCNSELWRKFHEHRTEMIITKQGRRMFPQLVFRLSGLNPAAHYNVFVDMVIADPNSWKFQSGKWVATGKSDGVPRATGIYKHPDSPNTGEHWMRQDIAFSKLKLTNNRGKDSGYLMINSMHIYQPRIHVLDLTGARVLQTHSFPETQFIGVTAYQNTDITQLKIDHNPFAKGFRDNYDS
Procedure: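 Universal protein-binding microarray (Agilent AMADID 016060, 60-bp probes with a 35-bp variable region) incubated with 200 nM GST-fused Patiria miniata Tbr T-box DNA-binding domain (residues 272-466) in PBS pH 7.5. Scored for every ungapped 8-mer (given with its reverse complement) by the Universal PBM Analysis Suite as E-score (modified Wilcoxon-Mann-Whitney enrichment, range -0.5 to 0.5; >0.45 counts as bound) and Z-score of median probe intensity. Two replicate arrays (datasets 1 and 2).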
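Further: 200 nM protein in PBS on universal arrays averaged over duplicate arrays.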

Sequence | PBM E-score of 8-mer
ATCTTTAA | -0.0751 ± 0.039
ACTTATAT | 0.0812 ± 0.011
CTTTGATA | -0.246 ± 0.022
AGGAGGAG | -0.152 ± 0.061
CGGTGTTC | -0.0289 ± 0.062
AAAGCCCC | -0.334 ± 0.025
CCATGCTC | -0.154 ± 0.043
CTCTGTGC | -0.0888 ± 0.082
CAAAAGAA | -0.103 ± 0.064
CAAGATTA | -0.103 ± 0.079
CTTGTCTC | 0.0562 ± 0.053
CAAAGCAG | -0.133 ± 0.039
CGCTAGTC | 0.109 ± 0.0089
GGCAGAAA | -0.0936 ± 0.045
GTCCTCAC | 0.18 ± 0.017
CTCGTCTA | 0.00098 ± 0.044
AAGTACAC | 0.0873 ± 0.06
ATAGGCCC | -0.141 ± 0.098
AAGCAATA | -0.168 ± 0.089
AACGGCTA | -0.0547 ± 0.041
CGCACATA | 0.35 ± 0.013
AGAGAGCT | -0.0721 ± 0.087
CCAGGCCG | 0.0213 ± 0.025
CAAAAGGA | -0.00677 ± 0.051
AGTTGGGG | -0.28 ± 0.12

Sequence | PBM E-score of 8-mer
ATTCAAGA | -0.232 ± 0.022
GACGAACA | 0.0114 ± 0.05
GAAAACCA | -0.00925 ± 0.096
ATCGCATA | 0.00104 ± 0.018
ATGGGATA | -0.116 ± 0.062
ATCCAAAT | 0.153 ± 0.015
TGACTCAA | -0.164 ± 0.014
CCCTCTTC | -0.173 ± 0.0054
ATTCCCAA | -0.313 ± 0.045
GCGGGCCC | -0.171 ± 0.093
GGTCCTTA | -0.279 ± 0.02
AGATTCCG | 0.0096 ± 0.0062
ACTGCTCA | -0.125 ± 0.026
ACATTAAC | 0.15 ± 0.044
CTCCTTAC | -0.0874 ± 0.042
AGCGTCCT | -0.167 ± 0.046
AGTTCCGC | 0.0134 ± 0.019
ACGAGGAT | -0.221 ± 0.012
GTTTTTCA | 0.241 ± 0.035
AGTTATAA | -0.14 ± 0.013
ATGTCGTG | 0.135 ± 0.011
CGCATGTA | -0.154 ± 0.013
CGTACAAG | -0.155 ± 0.086
CTAATTCA | 0.152 ± 0.017
ACTGTTAC | 0.118 ± 0.043

Sequence | PBM E-score of 8-mer
AAGCTCGA | -0.131 ± 0.03
CAGTGAAA | 0.086 ± 0.062
ATGTCTGA | -0.155 ± 0.017
ACAGCCGG | -0.149 ± 0.03
ACCAAGCA | -0.119 ± 0.059
CATATTAA | -0.183 ± 0.051
CCATTTTC | -0.0582 ± 0.12
AGTTATGC | -0.0257 ± 0.024
ACCGCCTA | -0.0488 ± 0.063
ACAGCACC | 0.255 ± 0.0057
GGTTTGGA | -0.144 ± 0.0032
GTGAGGGA | 0.168 ± 0.044
TAAGCACA | -0.0647 ± 0.076
GTCCTCAA | -0.21 ± 0.0099
AATTCTGA | -0.0118 ± 0.089
CGGGTCCC | 0.0661 ± 0.095
CAACGTCG | 0.057 ± 0.012
GACGCGGA | -0.0152 ± 0.0088
ATGTGCTC | -0.297 ± 0.012
ATCCCATG | -0.123 ± 0.0037
ATACACTC | 0.0255 ± 0.064
CTCAAGGC | -0.251 ± 0.011
ATCCAGCA | -0.175 ± 0.032
GGTCAGCA | -0.191 ± 0.1
GCGTATAC | -0.077 ± 0.068

Sequence | PBM E-score of 8-mer
CCGCATAC | -0.209 ± 0.1
AGGAGAAC | -0.0577 ± 0.047
CGTTGTAC | -0.0969 ± 0.027
ATGGAGTA | -0.232 ± 0.0091
ACACAAAG | 0.0805 ± 0.039
CCGCACAC | 0.159 ± 0.027
CAAATCAA | -0.0108 ± 0.0023
CAAGTATG | 0.134 ± 0.013
TCGAGCGA | -0.0621 ± 0.063
AGATCGGA | 0.0259 ± 0.052
CCTGATTA | -0.0272 ± 0.028
ACAGTACA | 0.00842 ± 0.022
AATTGTCC | -0.195 ± 0.11
CCCGGGCC | -0.22 ± 0.089
ATGTGGCG | 0.236 ± 0.025
GCCCTCGC | 0.212 ± 0.023
GTGTATAA | 0.108 ± 0.1
CCGACTGA | -0.0945 ± 0.011
CACACTCA | 0.3814 ± 0.0034
AATAGGGT | -0.0937 ± 0.038
CCGACGCC | 0.215 ± 0.051
AGCCTCCC | -0.216 ± 0.003
ATACACTA | -0.161 ± 0.026
GAAGTCAA | -0.139 ± 0.031
AGCCTTTC | -0.125 ± 0.036

Sequence | PBM E-score of 8-mer
ATTCAACA | -0.0395 ± 0.014
AATCCTTA | -0.0874 ± 0.016
CCTTTAAC | 0.13 ± 0.11
CCCCCCCG | -0.265 ± 0.022
ATTCGCGA | 0.389 ± 0.0025
ATAGTCAT | -0.205 ± 0.072
AAAAGCCT | -0.105 ± 0.013
CACGCTCC | 0.148 ± 0.012
CAGATATA | -0.126 ± 0.1
CGAATCCG | 0.117 ± 0.028
CTTGAGGC | -0.198 ± 0.017
AACAGTAC | 0.0354 ± 0.012
ACGCTGGC | 0.0376 ± 0.024
ATTGTACA | -0.164 ± 0.014
TTATGCAA | -0.22 ± 0.041
AAGTACGC | -0.109 ± 0.045
GTGACAGA | 0.348 ± 0.0052
ACTGAACG | -0.315 ± 0.091
CGCCGGCA | 0.134 ± 0.043
CAAAGGCC | -0.26 ± 0.042
ACGGGCCA | -0.323 ± 0.035
GACTGTGC | -0.0215 ± 0.02
CCCCTGCG | -0.147 ± 0.029
CCGACCCA | -0.196 ± 0.052
GAAACGAC | 0.132 ± 0.018

Sequence | PBM E-score of 8-mer
AAAAAAAC | 0.00934 ± 0.077
ACCCCGTA | 0.0227 ± 0.038
ACCTAACA | 0.3379 ± 0.0024
CAAGGACG | -0.135 ± 0.0014
ACTTGAGG | -0.0252 ± 0.019
GCTGCACA | 0.0562 ± 0.02
AGACAGTG | 0.141 ± 0.06
ATGTCTGG | -0.071 ± 0.0064
CCTGTCGC | 0.247 ± 0.064
AGAATTCT | 0.0148 ± 0.1
AGGGAATG | -0.318 ± 0.075
AGACTTTA | -0.226 ± 0.099
GAAATCTA | -0.239 ± 0.024
AGCACAGA | -0.153 ± 0.11
GAATAGCA | 0.126 ± 0.034
CCTTTTTC | -0.126 ± 0.028
GTAGTTTA | 0.00144 ± 0.0037
CTACCTAC | -0.216 ± 0.098
CACAGGTA | 0.163 ± 0.029
AACTACTT | -0.0181 ± 0.019
CAAGCGGG | -0.124 ± 0.011
GGGGTCAC | 0.104 ± 0.0032
AGAGGAGA | -0.0936 ± 0.0028
CAACGAAC | -0.127 ± 0.13
AGAAATTA | -0.237 ± 0.12

Sequence | PBM E-score of 8-mer
CTGCCGGC | -0.0591 ± 0.1
GTGGAACA | 0.0806 ± 0.064
GAAACAGA | -0.169 ± 0.058
TACCCACA | 0.107 ± 0.03
TCTCCCCA | -0.0247 ± 0.026
CAATAACC | -0.0704 ± 0.022
ATGCCGGA | -0.239 ± 0.037
GGCCGGTA | -0.0959 ± 0.011
TAAGGGTA | -0.0816 ± 0.1
ACCCTTCA | 0.0464 ± 0.023
CCTTATAG | -0.0154 ± 0.1
ACTAAGCC | -0.141 ± 0.11
CCATATCG | -0.11 ± 0.0042
TAGATTGA | -0.229 ± 0.059
ATGCAATC | -0.0992 ± 0.016
ATTCCAAT | 0.0337 ± 0.048
AAGGCGCG | 0.32 ± 0.011
CTTCTTTA | 0.0178 ± 0.01
CACACGAA | -0.0891 ± 0.04
AAACCCGC | 0.144 ± 0.018
ATGGACTA | -0.0491 ± 0.0021
CGTATGAA | -0.188 ± 0.11

From the supplement of paper PMC4166925
